Measurements as given in the supplement of paper PMC3334620.
Whole data set: some 33,000 sequences, median “E-score (-0.5 to 0.5)” near -0.016, cut for the highest 2% near 0.31. This is one part of the list.

The sequences below were run against Cst6 (UniProt P40535) (assay: PBM E-score (8-mer binding enrichment) (E-score (-0.5 to 0.5)); higher = stronger / more preferred TF binding; most listed sequences are background and not binding sites). Details: protein concentration: 200 nM; construct: GST-DNA-binding domain.
Procedure, shortened: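 Using PURExpress in vitro transcription/translation, GST-tagged yeast transcription factors were made in full-length or DNA-binding-domain form. These were applied at about 100-200 nM to double-stranded universal all-10-mer Agilent arrays, and bound protein was detected with fluorescent anti-GST. Scans were normalised with masliner before the Universal PBM Analysis Suite assigned E-scores to ungapped eight-base words pooled with their reverse complements.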

In order of rising “PBM E-score” value:
1. ATCGGGGG  -0.387
2. AGAGGGTC  -0.381
3. CCTGCCCC  -0.337
4. GCATTCGC  -0.333
5. AGCCAGCA  -0.332
6. GCTACCCA  -0.317
7. CCGGCCTC  -0.315
8. AGACTTGG  -0.29
9. CAAACCTC  -0.272
10. CCGCCGAC  -0.261
11. ACCTGCGA  -0.26
12. CCTTCTGC  -0.255
13. CCATTGGG  -0.244
14. CGAAGGTC  -0.225
15. CGCAGGGA  -0.217
16. ATAAGCCC  -0.212
17. CAGCGTCC  -0.207
18. ATCTATGG  -0.2
19. GGTCGGAC  -0.199
20. ACCAACGC  -0.192
21. GTACGGGA  -0.191
22. GACAGAGC  -0.182
23. AGAACTGC  -0.175
24. AGCGACCA  -0.172
25. TAGCTCGA  -0.171
26. ATTCCGGC  -0.169
27. ATCTCCCG  -0.163
28. ACTAGGAA  -0.163
29. GCCGGTAC  -0.162
30. CCACTTAG  -0.16
31. CATCTAGG  -0.153
32. GGGGAGTA  -0.145
33. ACTGGGTG  -0.142
34. GGCAGTAC  -0.141
35. ACAGCTTC  -0.14
36. CAGGCCTG  -0.137
37. CCTCAGGA  -0.135
38. TACCCCTA  -0.135
39. GCAGAACC  -0.134
40. ACTGTTCT  -0.131
41. ATAGCTAA  -0.13
42. ATTGGCTC  -0.129
43. CTGATGGC  -0.113
44. CTGCTCAC  -0.111
45. CAGTACAA  -0.108
46. CCGCCCGG  -0.107
47. AGCACAGG  -0.104
48. GTAGGGAA  -0.103
49. AGTGTAGA  -0.102
50. CGCAAGCG  -0.1
51. GGATGTAC  -0.0995
52. AAAACCTG  -0.0979
53. CGTTAGTC  -0.095
54. AAAGGCCG  -0.0945
55. CAGTTCTA  -0.0942
56. ACACGACC  -0.0934
57. AAAAGCTT  -0.0885
58. GCGAAAGA  -0.0882
59. CTGCATTC  -0.0773
60. AGCGAAAT  -0.0757
61. ATACTTGG  -0.0756
62. GCCGGTAA  -0.0726
63. AACTGGGA  -0.0713
64. AAGATTCT  -0.0651
65. AACGCTCA  -0.065
66. AAGTCGTC  -0.0649
67. ATAAGTGC  -0.0634
68. CAAACACC  -0.0632
69. GCCTCAGC  -0.06
70. CTCGTGTC  -0.0541
71. CCCTCGTC  -0.0534
72. GTTCACGA  -0.0448
73. CAGTTTAG  -0.044
74. CTCTGAAA  -0.0419
75. ACATGTCC  -0.041
76. CCTTCTGA  -0.0392
77. CTCTACAG  -0.036
78. GTGGCTGA  -0.0339
79. ATAGTTCC  -0.0337
80. AAGAGAGA  -0.0292
81. GACTCAAA  -0.0282
82. CAATCTGC  -0.0282
83. GGATACGA  -0.0261
84. CATCTCGA  -0.0257
85. CCCCAAAA  -0.0256
86. CTCTAAGA  -0.022
87. ACGAGACA  -0.0189
88. CTTCGTAA  -0.0175
89. GTAGTGCA  -0.0152
90. CGACTAAA  -0.0148
91. GATTCACA  -0.0103
92. ATCAGTCG  -0.00867
93. AATCTCAC  -0.00101
94. AACTAACT  0.00159
95. CCTAATAA  0.00168
96. ATGGCTAA  0.00459
97. AATGGGTG  0.00666
98. CAAATAGG  0.00845
99. GACAGTTA  0.00849
100. AAAAAGGG  0.0128
101. CGGGATGA  0.0154
102. ACGCCCTC  0.0162
103. TCCGCGAA  0.0184
104. ACTCTTTC  0.0185
105. ATTAAGCC  0.0234
106. GACGACCA  0.0279
107. GCAAATGC  0.0351
108. CATTCCCG  0.0388
109. TGAGTCAA  0.041
110. CGTTGCGC  0.0417
111. TCAAAAGA  0.0475
112. GCTCGCAA  0.0482
113. CAGTGATA  0.0488
114. CAAATTCG  0.054
115. ACTCGATG  0.0543
116. ATCTAGAA  0.0563
117. CGTCCTGA  0.0582
118. CCATCACG  0.0583
119. CTACTTTA  0.0594
120. GAGCAGTA  0.0605
121. ATTTCAAG  0.0685
122. GTCTCAAA  0.0686
123. GCGCATCC  0.0721
124. AGGGAAAA  0.0747
125. GGCATCAA  0.0768
126. GTCTTACA  0.0773
127. AGGATAAA  0.079
128. CTGTCAAC  0.082
129. AAAACCAA  0.0847
130. CAACACAC  0.0848
131. AGCCGTTC  0.0848
132. AAAACCCA  0.0969
133. AATTTAAG  0.102
134. CATCCTCA  0.102
135. AAATAAAG  0.104
136. ATTCACTC  0.106
137. AGATCACG  0.107
138. ATCGAATC  0.113
139. GAATACAA  0.116
140. CAAAACCA  0.116
141. AATGATCA  0.118
142. GATGAGTA  0.123
143. GTATACAA  0.125
144. ATCACGAA  0.126
145. ATTGTTAG  0.129
146. GTGTCAAA  0.132
147. GAACTGTA  0.137
148. AGGAAACA  0.14
149. AAACGCGG  0.145
150. AATTAGGT  0.151
151. ATATCAAA  0.153
152. TAGATCTA  0.154
153. AATCAGCA  0.157
154. CATCTATA  0.162
155. AATTCGCG  0.165
156. AACGGTAC  0.167
157. CTCAAAAC  0.175
158. AATTCCAG  0.176
159. GAATCTTA  0.176
160. CGGACGTA  0.187
161. CATTAACC  0.189
162. ATGAATTA  0.19
163. ATATACGG  0.194
164. AATTTGTA  0.197
165. CTATTATC  0.198
166. ACAACATA  0.204
167. AATTATGC  0.207
168. GTATTCTA  0.223
169. TCACTAAA  0.227
170. GACAAAAA  0.26
171. CCTACGTC  0.305
172. ATGATAAA  0.307
